In patent publication US20240150487A1, “COMBINATIONS WITH AN ANTI HUMAN CD39 ANTIBODY, AN ANTI HUMAN PD-1 ANTIBODY, AND CHEMOTHERAPY IN GASTRIC CANCER” (Trishula Therapeutics Inc., priority 2022, published 2024):

Legend:
[1] = Clinical PK of the anti-human CD39 antibody (dose escalation); format: in vivo; details: 40 mg/kg Q3W; functional level based on preclinical human functional assays (IL-2 from PBMCs, inflammasome activation)
Method: After the completion of the dose escalation portion of the study, the totality of the PK data was used for PK modeling for the RP2D. Based on simulations, it was determined that a loading dose of 40 mg/kg one week prior to Cycle 1, Day 1 dosing of 30 mg/kg Q3W or 20 mg/kg Q2W will provide a minimal functional trough level in greater than 80% of subjects before Cycle 1, Day 1 and in cycles thereafter.

[2] = Tolerability of the anti-human CD39 antibody (dose escalation); format: in vivo; details: doses up to 40 mg/kg
Method: An RP2D of the anti human CD39 antibody was determined to be a 40 mg/kg loading dose 7 days prior to Cycle 1 Day 1 and then either 30 mg/kg Q3W or 20 mg/kg Q2W.

B1: anti-human CD39 antibody: anti-human CD39 antibody; VH SEQ ID NO: 25, VL SEQ ID NO: 29; heavy chain SEQ ID NO: 33, light chain SEQ ID NO: 34 (antibody)
heavy: QVQLVQSGAEVKKPGASVKVSCKASGYTFKSYEMHWVRQAPGQGLEWMGRINPSVGSTWYAQKFQGRVTMTRDTSTSTVYMELSSLRSEDTAVYYCARGKREGGTEYLRKWGQGTLVTVSSASTKGPSVFPLAPCSRSTSESTAALGCLVKDYFPEPVTVSWNSGALTSGVHTFPAVLQSSGLYSLSSVVTVPSSSLGTKTYTCNVDHKPSNTKVDKRV[human IgG4 Fc with S228P (EU numbers) cut from this listing]
light: EIVLTQSPGTLSLSPGERATLSCRASQSVASSYLAWYQQKPGQAPRLLIYGASNRHTGIPDRFSGSGSGTDFTLTISRLEPEDFAVYYCQQYHNAITFGGGTKVEIKRTVAAPSVFIFPPSDEQLKSGTASVVCLLNNFYPREAKVQWKVDNALQSGNSQESVTEQDSKDSTYSLSSTLTLSKADYEKHKVYACEVTHQGLSSPVTKSFNRGEC
- trough level [1]: achieved a minimal functional trough level
- tolerability [2]: well tolerated
